Experimental data from PubChem BioAssay AID588453 (National Center for Advancing Translational Sciences (NCATS), 2011).
The campaign covered roughly 390,000 compounds. About 4,000 (1%) were called active. Inconclusive means that the source gave no clear call. Such entries were picked first, then a sample of the others. The call rests on the fitted dose curve; in most records, active means well fitted inhibition curve with a large enough effect; inconclusive means small, poorly fitted or top-dose-only effect; inactive means no such curve, though single readings can be large or run the other way. Potencies beside an inconclusive call are fits to weak or partial responses and may not hold up.

molecular target: Thioredoxin reductase 1, cytoplasmic (Rattus norvegicus) (UniProt O89049); test: qHTS Assay for Inhibitors of Mammalian Selenoprotein Thioredoxin Reductase 1 (TrxR1): qHTS; conditions: recombinant rTrxR1, NADPH fluorescence consumption, selenite substrate; series mostly up to 114 µM; further: nearly all actives have a fitted effect of over 65% in size
Sequence of UniProt O89049 (O89049 whole entry, looked up): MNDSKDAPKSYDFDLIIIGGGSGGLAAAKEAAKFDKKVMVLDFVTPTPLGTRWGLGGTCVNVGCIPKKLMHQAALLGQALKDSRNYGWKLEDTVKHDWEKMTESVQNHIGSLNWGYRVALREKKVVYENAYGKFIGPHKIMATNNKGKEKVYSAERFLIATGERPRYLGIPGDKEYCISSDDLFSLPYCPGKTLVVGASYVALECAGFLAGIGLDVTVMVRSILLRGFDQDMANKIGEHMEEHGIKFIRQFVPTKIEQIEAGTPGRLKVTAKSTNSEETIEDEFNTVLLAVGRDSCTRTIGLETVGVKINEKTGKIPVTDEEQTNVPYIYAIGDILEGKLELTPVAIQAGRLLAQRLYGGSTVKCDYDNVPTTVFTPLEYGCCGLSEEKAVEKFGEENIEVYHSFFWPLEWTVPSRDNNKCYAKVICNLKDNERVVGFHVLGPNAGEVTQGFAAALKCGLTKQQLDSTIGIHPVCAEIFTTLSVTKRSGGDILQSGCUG
In short: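 Rat TrxR1 (90 nM in the dispensed reagent) was pre-reduced with 400 uM NADPH for 5 min at room temperature, then incubated with compound for 15 min. After 400 uM selenite was added, NADPH fluorescence (Ex 340/Em 450 nm) was followed for 8 min.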
Potency means the concentration at half of the fitted maximal effect; tags describe the fitted curve by direction and shape.

Structure (SMILES)	Potency
CC(C)(C)NC(=O)CN1CCCN(C(=O)c2cccc(S(=O)(=O)N3CCc4ccccc43)c2)CC1	inconclusive: 89.1 µM [inhibitor, single point]
Cc1cccc(Nc2ncnc3ccccc23)c1	inconclusive: 22.4 µM [inhibitor, single point]
Cc1cccnc1Nc1nc(-c2ccccn2)cs1	inactive
C=CCn1c(Cc2cccs2)nnc1SCC(=O)NCc1ccco1	inconclusive: 89.1 µM [inhibitor, single point]
C=C1C(=O)C23CCC4C(C)(C(=O)OC)CCCC4(C)C2CCC1(O)C3 (stereo unspecified)	inconclusive: 2.51 µM [inhibitor, partial curve, poor fit]
CCn1c(=O)c(=O)[nH]c2cc(C(=O)NC3CCCC3)ccc21	inactive
Cc1cc(/C=C2\SC(=S)N(Cc3ccco3)C2=O)c(C)n1-c1ccccc1	inconclusive: 44.7 µM [inhibitor, partial curve, poor fit]
COc1ccc(-n2c(=O)cc(N3CCN(Cc4ccccc4)CC3)[nH]c2=O)cc1	inconclusive: 50.1 µM [inhibitor, partial curve]
COC(=O)c1c(C)oc2ccc(N(C(=O)Oc3ccccc3)S(=O)(=O)c3ccc(Cl)c([N+](=O)[O-])c3)cc12	inconclusive: 4.47 µM [inhibitor, partial curve, poor fit]
CCCC(=O)OCCNc1cc(SCCC(=O)OC)c2nonc2c1[N+](=O)[O-]	active: 10 µM
CCCCOC(=O)NS(=O)(=O)c1sc(CC(C)C)cc1-c1ccc(Cn2c(CC)nc3c(C)cc(C)nc32)cc1	inconclusive: 25.1 µM [inhibitor, full curve]
Nc1cc(OC(=O)c2ccccc2Br)nn1S(=O)(=O)c1ccccc1	inconclusive: 35.5 µM [inhibitor, single point]
O=C(NC(=S)Nc1ccc(N2CCOCC2)cc1)c1ccc(Cl)cc1	inconclusive: 6.31 µM [inhibitor, full curve]
COc1cc2cc(C(=O)N3CCOCC3)cc(-c3ccc(C)cc3)c2cc1OC	inactive
Cc1ccc(CN2CCNC(=O)C2CC(=O)O)cc1 (stereo unspecified)	inconclusive: 50.1 µM [inhibitor, partial curve]
Cc1cc(O)c(C(c2ccc(F)cc2)N2CCCCC2)c(=O)n1Cc1ccco1 (stereo unspecified)	inconclusive: 25.1 µM [inhibitor, single point]
Clc1ccc2c(c1)C1OCCC1C(c1ccco1)N2 (stereo unspecified)	inconclusive: 89.1 µM [inhibitor, single point]
Oc1c(Br)cc(/C=N/NC(=S)NCc2ccco2)cc1Br	inconclusive: 79.4 µM [inhibitor, partial curve, poor fit]
CCN(CC)c1ccc(/C=N/NC(=S)NCc2ccccc2)c(O)c1	inconclusive: 3.98 µM [inhibitor, full curve, poor fit]
COc1ccc(C[C@](C)(N)C(=O)O)cc1OC	inactive
CC(C)C(C)(C#N)NC(=O)COC(=O)C1CCN(S(=O)(=O)c2ccc3c(c2)OCCO3)CC1 (stereo unspecified)	inconclusive: 89.1 µM [inhibitor, partial curve, poor fit]

Structure (SMILES)	Potency
O=C(Nc1ccc2nc3n(c(=O)c2c1)CCCC3)c1cccc([N+](=O)[O-])c1	inactive
O=C(NNC(=O)c1ccc([N+](=O)[O-])o1)c1ccccc1	inconclusive: 6.31 µM [inhibitor, partial curve]
COc1ccccc1-c1nc(S(=O)(=O)c2ccc(Cl)cc2)c(N2CCCCCC2)o1	inactive
Cc1cc(C)nc(SCc2nnc(SCC(N)=O)n2Cc2ccco2)n1	inconclusive: 20 µM [inhibitor, partial curve, poor fit]
Cc1nn(-c2ccccc2)c(Cl)c1/C=C1\SC(=S)NC1=O	inconclusive: 11.2 µM [inhibitor, partial curve, poor fit]
O=C(O)c1cccc(Cn2c(Cl)c(/C=N/Nc3ccccc3)sc2=O)c1	active: 8.91 µM
COc1ccc(N2C(=O)C(=O)/C(=C(/O)c3ccc(C)cc3)C2c2cccnc2)cc1 (stereo unspecified)	inconclusive: 70.8 µM [inhibitor, partial curve]
CC(=O)N1[C@H](Cc2ccccc2)C=C[C@]1(C)C(=O)NCc1ccc(C)o1	inconclusive: 50.1 µM [inhibitor, partial curve, poor fit]
CCOC(=O)c1ccc(-n2c(N)c(C(=O)OC)c3nc4ccccc4nc32)cc1	inconclusive: 28.2 µM [inhibitor, single point]
Cc1ccc(CNC(=O)CCC2CCCN(C(=O)CCC(F)(F)F)C2)o1 (stereo unspecified)	inconclusive: 50.1 µM [inhibitor, partial curve]
CC(=O)Nc1c2c(nn1-c1ccccc1C)CS(=O)C2 (stereo unspecified)	inconclusive: 15.8 µM [inhibitor, full curve]
CCn1nnnc1-c1ccc(OC)c(S(=O)(=O)Nc2ccc(C)c(C)c2)c1	inactive
Cc1ccc(C2C(C#N)C(C#N)N3CCCN23)cc1 (stereo unspecified)	active: 22.4 µM
O=C(CCC(=O)Nc1ccc(Cl)cc1Cl)N/N=C/c1ccc([N+](=O)[O-])o1	active: 11.2 µM
COC(=O)CSc1nc(N)c(C#N)c(CC(C)C)c1C#N	inconclusive: 89.1 µM [inhibitor, partial curve, poor fit]
CCC(CO)[n+]1c(C)cc(/C=C2\Sc3ccccc3N2Cc2ccccc2)cc1C (stereo unspecified)	inconclusive: 79.4 µM [inhibitor, partial curve]
Cc1cc(C(=O)N/N=C2\CC(=O)CC(C)(C)C2)c(C)n1-c1ccc(F)cc1	inconclusive: 50.1 µM [inhibitor, single point]
CCN(CC)c1ccc2c(Cl)c(Br)c(=O)oc2c1	inconclusive: 39.8 µM [inhibitor, partial curve, poor fit]
CCc1c(C)c2ccc3c(c2oc1=O)CN(Cc1ccccc1)CO3	inconclusive: 14.1 µM [inhibitor, partial curve, poor fit]
CCOC(=O)C1CCN(C(c2ccccc2)c2c(O)cc(C)n(Cc3ccco3)c2=O)CC1 (stereo unspecified)	inconclusive: 11.2 µM [inhibitor, partial curve, poor fit]
